# PubChem BioAssay AID686979 (National Center for Advancing Translational Sciences (NCATS), 2013)
# Screen size: about 420,000 compounds; about 50,000 (12%) were called active. Inconclusive results, whose numbers are uncertain, are shown with a selection of clear calls. The call rests on the fitted dose curve; in most records, active means well fitted inhibition curve with a large enough effect; inconclusive means small, poorly fitted or top-dose-only effect; inactive means flat fitted curve, though single readings scatter. Potencies of inconclusive entries are left out as doubtful fits.
# Test: qHTS for Inhibitors of human tyrosyl-DNA phosphodiesterase 1 (TDP1): qHTS in cells in presence of CPT; further: nearly all actives have a fitted effect of over 55% in size
# Conditions: chicken DT40 Tdp1-/-;hTDP1 cells + 20 nM CPT, ATP luminescence, 48 h; activity change, negative = growth inhibition: at 46.2 µM (top of the series) unless noted
# In short: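 Chicken DT40 Tdp1-/- cells complemented with human TDP1, 400 cells/well, exposed to compounds plus 20 nM camptothecin for at least 48 h at 37 C; viability read as ATP content by CellTiter-Glo luminescence.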
# On the % scale 0 is the no-effect control and ±100 the full control effect; potency means the concentration at half of the fitted maximal effect; tags describe the fitted curve by direction and shape.
Structure (SMILES),Potency,"activity change, negative = growth inhibition"
CCOc1ccc(C(C)C)cc1S(=O)(=O)Nc1cccc(-c2ccc(N3CCOCC3)nn2)c1,"inconclusive [inhibitor, partial curve]",–
Cc1ccc(NC(=O)C(Cc2ccccc2)NS(=O)(=O)c2ccc3c(c2)c(=O)n(C)c(=O)n3C)cc1 (stereo not drawn),active: 16.4 µM,–
Cc1ccc(C(C)C)c(OCC(=O)Nn2c(=O)[nH]c3ccccc3c2=O)c1,inactive,–
CCN(C(=O)c1cc(S(=O)(=O)N2CCOCC2)cn1C)c1ccc(OC)cc1,inactive,–
CCC(C)NC(=S)N1CCN(C)CC1 (stereo not drawn),inactive,–
CC(C)(C)c1ccc(OCC(=O)N(Cc2ccco2)Cc2ccccc2F)cc1,"inconclusive [inhibitor, single point]",–
COc1ccc(/C=C/c2nc3ccccc3n2Cc2ccc(OC)c(OC)c2)cc1,"inconclusive [inhibitor, single point]",–
COc1ccc(OC)c(C2C(C(N)=O)=C(C)Nc3nc(-c4cccc(Cl)c4)nn32)c1 (stereo not drawn),"inconclusive [inhibitor, single point]",–
O=C1c2[nH]c(=O)[nH]c(=O)c2CN1Cc1ccccc1,inactive,–
CC(C)c1ccc(S(=O)(=O)N2CCN(C(=O)C3=COCCO3)CC2)cc1,"inconclusive [inhibitor, single point]",–
Cc1cccn2c(=O)c3cc(C(=O)NCCc4ccc(S(N)(=O)=O)cc4)n(C)c3nc12,"inconclusive [inhibitor, single point]",–
Cc1ccc(N(C(=O)Cn2nnc(-c3ccc(F)cc3)n2)C(CC(C)C)C(=O)NCC2CCCO2)cc1 (stereo not drawn),"inconclusive [inhibitor, partial curve, poor fit]",–
CSc1ccccc1OCc1cc(C(=O)NCCn2nc(C)cc2C)no1,active: 11.6 µM,–
COc1ccc2c(c1)N(C(=O)CSc1n[nH]c(C)n1)C(C)(C)C=C2C,inactive,–
Cc1ccc2nc(C(C)(C)C)c(Cc3ccsc3)n2c1,"inconclusive [inhibitor, single point]",–
CC1=C(C(=O)O)N2C(=O)C(NC(=O)c3nn(C)c(C)c3Cl)C2SC1 (stereo not drawn),"inconclusive [inhibitor, partial curve]",–
Cc1ccc(NC(=O)c2ccc([N+](=O)[O-])o2)c(C)c1,active: 23.1 µM,–
CC(=O)C1=CCC(c2ccco2)N(S(=O)(=O)c2ccc(C)cc2)C1 (stereo not drawn),"inconclusive [inhibitor, single point]",–
CC(=O)c1ccc(NC(=O)Cn2c(-n3nc(C)cc3C)nc(C)cc2=O)cc1,"inconclusive [inhibitor, single point]",–
CC(=O)c1cccc(Nc2ccc(Br)cc2)c1,"inconclusive [inhibitor, single point]",–
COc1ccccc1N1CCN(C(=O)c2cccc(S(=O)(=O)N3c4ccccc4CC3C)c2)CC1 (stereo not drawn),active: 23.1 µM,–
COc1cc(OC)cc(-c2nnc(SCC(=O)N3CCC(C)CC3)o2)c1,"inconclusive [inhibitor, single point]",–
CC1CCCN(C(=O)c2cc(-c3cccs3)nc3ccccc23)C1 (stereo not drawn),"inconclusive [inhibitor, single point]",–

Structure (SMILES),Potency,"activity change, negative = growth inhibition"
Cc1cccn2c(=O)c(/C=C(\C#N)C(N)=O)c(N3CCN(c4cccc(Cl)c4)CC3)nc12,"inconclusive [inhibitor, single point]",–
CC(C)=CC1C(C(=O)Nc2ccc(Br)cn2)C1(C)C (stereo not drawn),"inconclusive [inhibitor, single point]",–
O=C(CN1CCCC1)Nc1c2c(nc3ccccc13)N(Cc1ccccc1)CC2,active: 20.6 µM,–
COc1cccc(-n2cc(C(=O)Oc3ccc(F)cc3)c3ccccc3c2=O)c1,"inconclusive [inhibitor, single point]",–
Cc1nn2c(=O)cc(COC(=O)c3ccccc3NC(=O)C(C)C)nc2s1,"inconclusive [inhibitor, single point]",–
CCO[C@H]1OC(C(=O)NC2CC2)=C[C@@H](c2ccccc2)[C@@H]1CCCO,"inconclusive [inhibitor, single point]",–
Cc1ccn(CC(=O)N2CCCC(N3CCN(c4cccc(C(F)(F)F)c4)CC3)C2)n1 (stereo not drawn),"inconclusive [inhibitor, single point]",–
Cc1cccc(NC(=O)CNC(=O)COC(=O)c2ccc(C(C)(C)C)cc2)c1C,"inconclusive [inhibitor, single point]",–
COc1cc(C(=O)Nc2cccc(OCc3cc(=O)n4c(C)csc4n3)c2)cc(OC)c1OC,active: 20.6 µM,–
Cc1cccc(Cc2nnc(CCC(=O)NCc3ccncc3C)o2)c1,"inconclusive [inhibitor, single point]",–
COC(=O)c1c(C)oc(C)c1S(=O)(=O)NCc1cccs1,inactive,–
COc1ccc(CN2C(=O)COc3ccccc32)cc1,inactive,–
COc1ccccc1C1CN(CC(=O)N[C@H]2CCCCNC2=O)Cc2ccccc2O1 (stereo partly drawn),–,inactive: 4.07% [at 9.04 µM]
Fc1ccccc1Cc1noc(CN2CCN(C/C=C/c3ccccc3)CC2)n1,active: 18.4 µM,–
C[C@@]12C(=O)Nc3ccc(Cl)cc3C(=O)N1[C@H]1c3cc(Br)ccc3OC[C@@H]1[C@@H]2c1ccccc1,active: 23.1 µM,–
OCC1(Cc2ccccc2Cl)CCN(C/C=C/c2ccccc2)CC1,"inconclusive [inhibitor, single point]",–
Cc1ccccc1C(=O)N1CCc2c([nH]c3ccccc23)C1C(F)(F)F (stereo not drawn),"inconclusive [inhibitor, single point]",–
COc1ccc(S(=O)(=O)NC2CCSc3ccccc32)cc1NC(C)=O (stereo not drawn),inactive,–
COc1ccc(NC(=O)c2cccc(N3C(=O)NC4CC3(C)Oc3ccccc34)c2)cc1 (stereo not drawn),"inconclusive [inhibitor, single point]",–
CC(C)(C)n1cnc2cc(NC(=O)c3ccccc3)ccc21,"inconclusive [inhibitor, single point]",–
CCCn1c2c(c(O)c(C(=O)NCc3ccccc3)c1=O)CCCC2,"inconclusive [inhibitor, partial curve]",–
Cc1c(C)n(Cc2ccccc2)c2ccc(C(=O)NCCN3CCOCC3)cc12,"inconclusive [inhibitor, single point]",–
Cc1noc2ncnc(N3CCCC(C(=O)NCCC(C)C)C3)c12 (stereo not drawn),active: 8.2 µM,–

Structure (SMILES),Potency,"activity change, negative = growth inhibition"
CC(C)N=C1SCC(C)(/C=N/O)S1 (stereo not drawn),inactive,–
COc1ccc(NC(=O)CN(C)C(=O)C2(c3ccccc3)CCCC2)cc1,"inconclusive [inhibitor, single point]",–
CN(c1cccc(NC(=O)c2cccc([N+](=O)[O-])c2)c1)S(C)(=O)=O,inactive,–
COc1ccc(N(C(=O)c2snc(C(N)=O)c2N)C(C(=O)NCc2ccccc2)c2ccc(O)cc2)cc1 (stereo not drawn),"inconclusive [inhibitor, single point]",–
C(=N/Nc1nccs1)/c1cccnc1,"inconclusive [inhibitor, single point]",–
Cc1nnc2ccc(-c3ccc(NC(=O)Cc4cccs4)cc3)nn12,"inconclusive [inhibitor, single point]",–
O=C(COC(=O)/C=C/c1cccc([N+](=O)[O-])c1)Nc1ccc(Cl)cn1,inactive,–
COc1ccc(C2=NN(Cc3ccccc3)C3C(=O)NC(=O)C23)cc1 (stereo not drawn),inactive,–
COc1ccc(S(=O)(=O)N(C)C[C@H]2Oc3c(NC(=O)Cc4ccccc4)cccc3C(=O)N([C@H](C)CO)C[C@@H]2C)cc1,"inconclusive [inhibitor, single point]",–
CCOc1ccc(-c2nnc3ccc(SCC(=O)Nc4nc5ccccc5s4)nn23)cc1,"inconclusive [inhibitor, single point]",–
CC1=C(C(=O)OCc2ccccc2)C(c2cccc(Br)c2)NC(=O)N1 (stereo not drawn),"inconclusive [inhibitor, single point]",–
CCOC(=O)N1CCc2c(sc3c2c(=O)n(Cc2ccccc2)c(=O)n3CC(=O)NCC2CCCO2)C1 (stereo not drawn),"inconclusive [inhibitor, single point]",–
O=c1c(CN2CCOc3ccc(CN4CCC(Oc5cccnc5)CC4)cc3C2)coc2ccccc12,–,inactive: 0.59% [at 9.04 µM]
COc1ccc(/C=N/NC(=O)NC23CC4CC(CC(C4)C2)C3)c(OC)c1,"inconclusive [inhibitor, single point]",–
CC(C)C1COC(c2cccn2Cc2ccccc2Cl)=N1 (stereo not drawn),"inconclusive [inhibitor, single point]",–
CC(C(=O)NC1CCCCC1)N1CCN(S(=O)(=O)c2cccs2)CC1 (stereo not drawn),inactive,–
COC(=O)CNC(c1ccccc1Cl)c1cc(Br)ccc1NS(=O)(=O)c1ccc(C)cc1 (stereo not drawn),"inconclusive [inhibitor, single point]",–
Cc1ccccc1CNS(=O)(=O)c1c(C)[nH]c(C)c1C(=O)N1CCCCC1,"inconclusive [inhibitor, single point]",–
CC(NC(=O)C1CCN(S(=O)(=O)c2cccs2)CC1)c1cccc(Cl)c1 (stereo not drawn),inactive,–
COc1cccc(NC(C(=O)Nc2cccc(C(C)=O)c2)c2ccccc2)c1 (stereo not drawn),inactive,–
COc1cccc(S(=O)(=O)Nc2ccc(C(=O)NCc3ccco3)cc2)c1,"inconclusive [inhibitor, partial curve, poor fit]",–
O=C(CSc1ccccn1)Nc1ccc(N2CCOCC2)cc1,–,inconclusive: -31.3% [inhibitor]
